# Assay results reported in the supplement of paper PMC10037445.
# In all, about 2,900 compounds were measured (“NF-kB SEAP reporter activity, fold change vs agonist alone”: median about 0.99, highest 2% from about 2.6 on). The list shows a part of the results.
# Key:
# [1] = tested on: RAW-Dual; test: NF-kB SEAP reporter activity, fold change vs agonist alone; higher = enhanced NF-kB activity; details: library stock concentration (final ~1000-fold dilution): 10 mM
# Procedure, shortened: (§1)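 After 50 nL of library stock was delivered by pin tool to RAW-Dual macrophages (50,000 cells/well, DMEM, 384-well plates), a PRR agonist was added 1 h later and the plates were kept at 37 °C, 5% CO2. Twenty hours later, IRF was read from supernatant by QuantiLuc luminescence and NF-κB by QuantiBlue absorbance at 620 nm. Reporter activity is stated as fold change over agonist-alone wells. Wells with IncuCyte confluency under 70% of agonist controls in both mask sets were counted as cytotoxic.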
# [2] = tested on: RAW-Dual; test: NF-kB SEAP reporter activity, fold change vs agonist alone; cytotoxicity flag (confluency mask): not cytotoxic; higher = enhanced NF-kB activity
# Procedure, shortened: as §1
# [3] = tested on: RAW-Dual; test: NF-kB SEAP reporter activity, fold change vs agonist alone; cytotoxicity flag (confluency mask): cytotoxic (confluency <70% of control); higher = enhanced NF-kB activity
# Procedure, shortened: as §1
# [4] = cytotoxicity flag (confluency mask): not cytotoxic, agonist: Imiquimod (TLR7) […]
# [5] = cytotoxicity flag (confluency mask): not cytotoxic, agonist: MPLA (TLR4) […]
# [6] = agonist: ODN 1826 (TLR9) 0.5 ug/mL
# [7] = agonist: Pam2CSK4 (TLR2/6) 0.1 ug/mL
# [8] = agonist: Pam3CSK4 (TLR2/1) 0.1 ug/mL
smiles,measurement,setting,value
CC1CCC2(C(=O)OC3OC(COC4OC(CO)C(OC5OC(C)C(O)C(O)C5O)C(O)C4O)C(O)C(O)C3O)CCC3(C)C(=CCC4C5(C)CC(O)C(O)C(C)(CO)C5CCC43C)C2C1C (stereo unspecified),NF-kB SEAP reporter activity,[1]; [4],0.997
same,NF-kB SEAP reporter activity,[1]; [5],1.05
CC1CCC2(C(=O)OC3OC(COC4OC(CO)C(OC5OC(C)C(O)C(O)C5O)C(O)C4O)C(O)C(O)C3O)CCC3(C)C(=CCC4C5(C)CC(O)C(O)C(C)(CO)C5CCC43C)C2C1C (stereo unspecified) (library stock concentration (final ~1000-fold dilution): 10 mM),NF-kB SEAP reporter activity,[2]; agonist: LPS (TLR4) 0.1 ug/mL,0.922
same,NF-kB SEAP reporter activity,[2]; [6],1
same,NF-kB SEAP reporter activity,[2]; [7],1.04
same,NF-kB SEAP reporter activity,[2]; [8],1.05
c1ccc2c(CCNc3ccc(Nc4ccncc4)cc3)c[nH]c2c1,NF-kB SEAP reporter activity,[1]; [4],2.49
same,NF-kB SEAP reporter activity,[1]; [5],1.98
c1ccc2c(CCNc3ccc(Nc4ccncc4)cc3)c[nH]c2c1 (library stock concentration (final ~1000-fold dilution): 10 mM),NF-kB SEAP reporter activity,[2]; agonist: LPS (TLR4) 0.1 ug/mL,1.15
same,NF-kB SEAP reporter activity,[2]; [6],0.221
same,NF-kB SEAP reporter activity,[2]; [7],0.868
same,NF-kB SEAP reporter activity,[2]; [8],1.17
CC(=O)NC(Cc1ccc(O)cc1)C(=O)NC(CCCNC(=N)N)C(=O)NC(Cc1ccccc1)C(N)=O (stereo unspecified),NF-kB SEAP reporter activity,[1]; [4],0.943
same,NF-kB SEAP reporter activity,[1]; [5],1
CC(=O)NC(Cc1ccc(O)cc1)C(=O)NC(CCCNC(=N)N)C(=O)NC(Cc1ccccc1)C(N)=O (stereo unspecified) (library stock concentration (final ~1000-fold dilution): 10 mM),NF-kB SEAP reporter activity,[2]; agonist: LPS (TLR4) 0.1 ug/mL,1.02
same,NF-kB SEAP reporter activity,[2]; [6],1.12
same,NF-kB SEAP reporter activity,[2]; [7],1.12
same,NF-kB SEAP reporter activity,[2]; [8],1.01
Cc1cc(C(C)Nc2ccccc2C(=O)O)c2nc(N3CCOCC3)cc(=O)n2c1 (stereo unspecified),NF-kB SEAP reporter activity,[1]; [4],0.776
same,NF-kB SEAP reporter activity,[1]; [5],0.98
Cc1cc(C(C)Nc2ccccc2C(=O)O)c2nc(N3CCOCC3)cc(=O)n2c1 (stereo unspecified) (library stock concentration (final ~1000-fold dilution): 10 mM),NF-kB SEAP reporter activity,[2]; agonist: LPS (TLR4) 0.1 ug/mL,1.72
same,NF-kB SEAP reporter activity,[2]; [6],1.24
same,NF-kB SEAP reporter activity,[2]; [7],0.989
same,NF-kB SEAP reporter activity,[2]; [8],1.08
COc1c(C)cnc(Cn2cnc3c(Cl)nc(N)nc32)c1C,NF-kB SEAP reporter activity,"[1]; cytotoxicity flag (confluency mask): cytotoxic (confluency <70% of control), agonist: Imiquimod (TLR7) […]",0.242
same,NF-kB SEAP reporter activity,"[1]; cytotoxicity flag (confluency mask): cytotoxic (confluency <70% of control), agonist: MPLA (TLR4) […]",0.433
COc1c(C)cnc(Cn2cnc3c(Cl)nc(N)nc32)c1C (library stock concentration (final ~1000-fold dilution): 10 mM),NF-kB SEAP reporter activity,[3]; agonist: LPS (TLR4) 0.1 ug/mL,0.245
same,NF-kB SEAP reporter activity,[3]; [6],0.19
same,NF-kB SEAP reporter activity,[3]; [7],0.159
same,NF-kB SEAP reporter activity,[3]; [8],0.146
COc1ccc2c(Oc3ccc(NC(=O)c4c(C)n(CC(C)(C)O)n(-c5ccccc5)c4=O)nc3)ccnc2c1 (library stock concentration (final ~1000-fold dilution): 10 mM),NF-kB SEAP reporter activity,[2]; agonist: LPS (TLR4) 0.1 ug/mL,0.793
same,NF-kB SEAP reporter activity,[2]; [6],0.567
same,NF-kB SEAP reporter activity,[2]; [7],0.472
same,NF-kB SEAP reporter activity,[2]; [8],0.485
COc1ccc2c(Oc3ccc(NC(=O)c4c(C)n(CC(C)(C)O)n(-c5ccccc5)c4=O)nc3)ccnc2c1,NF-kB SEAP reporter activity,[1]; [4],0.867
same,NF-kB SEAP reporter activity,[1]; [5],0.896
